Source: US10299477B2 (priority 2015, dated 2019)

Key:
Botrytis cinerea = assay: Test Example B: Gray mold on tomato; format: in vivo; settings: for Test B (control value class): gray mold on tomato, Botrytis cinerea, 250 ppm spray
Alternaia brassicicola = assay: Test Example C: Alternaria sooty spot on cabbage; format: in vivo; settings: Alternaria sooty spot on cabbage; for Test C (control value class): 250 ppm spray
[1] = tested on: Blumeria graminis f sp. hordei; assay: Test Example D: Powdery mildew on barley; format: in vivo; settings: for Test D (control value class): powdery mildew on barley, 250 ppm spray
Puccinia recondita = assay: Test Example E: Brown rust on wheat; format: in vivo; settings: for Test E (control value class): brown rust on wheat, Puccinia recondita, 250 ppm spray
Plasmopara viticola = assay: Test Example G: Downy mildew on vine; format: in vivo; settings: 7-10 days after inoculation; for Test G (control value class): downy mildew on vine, Plasmopara viticola, 250 ppm spray
[2] = tested on: Colletotrichum orbiculare; settings: in vivo

| SMILES | Test H (control value class) [2] | other results |
| --- | --- | --- |
| COc1cc(OC)c(Br)c(-c2ccc(=O)n(C)c2-c2c(F)cccc2Cl)c1 [Compound 165] | – | Test B control value (Botrytis cinerea; Gray mold on tomato): H (H shows more than 50% of control values); Test C control value (Alternaia brassicicola): H (H shows more than 50% of control values); Test D control value ([1]; Powdery mildew on barley): H (H shows more than 50% of control values); Test E control value (Puccinia recondita; Brown rust on wheat): H (H shows more than 50% of control values); Test G control value (Plasmopara viticola; Downy mildew on vine, 250 ppm sprayed before inoculation): H (H shows more than 50% of control values); Test H control value [2]: H (key: H shows more than 50% of control values; L shows 50% or less of control values) |
| CCn1c(-c2c(F)cc(OC)cc2F)c(-c2cc(F)ccc2Cl)ccc1=O [Compound 382] | H (key: H shows more than 50% of control values; L shows 50% or less of control values) | Test B (control value class) (Botrytis cinerea): H (H shows more than 50% of control values); Test C (control value class) (Alternaia brassicicola): H (H shows more than 50% of control values); Test D (control value class) [1]: H (H shows more than 50% of control values); Test E (control value class) (Puccinia recondita): H (H shows more than 50% of control values); Test G (control value class) (Plasmopara viticola): L (L shows 50% or less of control values) |
| CCn1c(-c2c(F)cccc2F)c(-c2cc(Cl)ccc2Cl)cc(Cl)c1=O [Compound 445] | H (key: H shows more than 50% of control values; L shows 50% or less of control values) | Test B (control value class) (Botrytis cinerea): H (H shows more than 50% of control values); Test C (control value class) (Alternaia brassicicola): H (H shows more than 50% of control values); Test D (control value class) [1]: H (H shows more than 50% of control values); Test E (control value class) (Puccinia recondita): H (H shows more than 50% of control values); Test G (control value class) (Plasmopara viticola): L (L shows 50% or less of control values) |
| CCn1c(-c2c(F)cc(F)cc2F)c(-c2cccc(F)c2Cl)cc(C)c1=O [Compound 501] | H (key: H shows more than 50% of control values; L shows 50% or less of control values) | Test B (control value class) (Botrytis cinerea): H (H shows more than 50% of control values); Test C (control value class) (Alternaia brassicicola): H (H shows more than 50% of control values); Test D (control value class) [1]: H (H shows more than 50% of control values); Test E (control value class) (Puccinia recondita): H (H shows more than 50% of control values); Test G (control value class) (Plasmopara viticola): H (H shows more than 50% of control values) |
| CCn1c(-c2c(F)cccc2F)c(-c2cccc(F)c2F)ccc1=O [Compound 518] | H (key: H shows more than 50% of control values; L shows 50% or less of control values) | Test B (control value class) (Botrytis cinerea): H (H shows more than 50% of control values); Test C (control value class) (Alternaia brassicicola): H (H shows more than 50% of control values); Test D (control value class) [1]: H (H shows more than 50% of control values); Test E (control value class) (Puccinia recondita): H (H shows more than 50% of control values); Test G (control value class) (Plasmopara viticola): L (L shows 50% or less of control values) |
| Cn1c(-c2c(F)cc(F)cc2F)c(-c2cccc(F)c2F)ccc1=O [Compound 557] | H (key: H shows more than 50% of control values; L shows 50% or less of control values) | Test B (control value class) (Botrytis cinerea): H (H shows more than 50% of control values); Test C (control value class) (Alternaia brassicicola): H (H shows more than 50% of control values); Test D (control value class) [1]: H (H shows more than 50% of control values); Test E (control value class) (Puccinia recondita): H (H shows more than 50% of control values); Test G (control value class) (Plasmopara viticola): H (H shows more than 50% of control values) |
| CCn1c(-c2c(F)cc(F)cc2F)c(-c2cc(F)cc(F)c2)cc(Cl)c1=O [Compound 791] | H (key: H shows more than 50% of control values; L shows 50% or less of control values) | – |
| CCn1c(-c2c(F)cc(F)cc2F)c(-c2cc(O)ccc2Cl)cc(Cl)c1=O [Compound 792] | H (key: H shows more than 50% of control values; L shows 50% or less of control values) | – |
| CCOc1ccc(Cl)c(-c2cc(Cl)c(=O)n(CC)c2-c2c(F)cc(F)cc2F)c1 [Compound 793] | H (key: H shows more than 50% of control values; L shows 50% or less of control values) | – |
| CCn1c(-c2c(F)cc(F)cc2F)c(-c2cc(OCOC)ccc2Cl)cc(Cl)c1=O [Compound 795] | H (key: H shows more than 50% of control values; L shows 50% or less of control values) | – |
| CCOc1ccc(Cl)c(-c2cc(Cl)c(=O)n(CC)c2-c2c(F)cc(OC)cc2F)c1 [Compound 796] | H (key: H shows more than 50% of control values; L shows 50% or less of control values) | – |
| CCn1c(-c2c(F)cc(F)cc2F)c(-c2cc(F)cc(F)c2)cc(Br)c1=O [Compound 797] | H (key: H shows more than 50% of control values; L shows 50% or less of control values) | – |
| CCn1c(-c2c(F)cc(OC)cc2F)c(-c2cc(F)cc(F)c2)cc(Br)c1=O [Compound 799] | H (key: H shows more than 50% of control values; L shows 50% or less of control values) | – |
| Cn1c(-c2c(F)cc(F)cc2F)c(-c2cc(F)cc(F)c2)ccc1=O [Compound 800] | H (key: H shows more than 50% of control values; L shows 50% or less of control values) | – |
| CCn1c(-c2c(F)cccc2F)c(-c2cc(OCC#N)ccc2Cl)cc(C)c1=O [Compound 801] | H (key: H shows more than 50% of control values; L shows 50% or less of control values) | – |
| CCOc1ccc(Cl)c(-c2cc(C)c(=O)n(CC)c2-c2c(F)cccc2F)c1 [Compound 802] | H (key: H shows more than 50% of control values; L shows 50% or less of control values) | – |
| COc1cc(F)c(-c2c(-c3cc(F)cc(F)c3)ccc(=O)n2C)c(F)c1 [Compound 803] | H (key: H shows more than 50% of control values; L shows 50% or less of control values) | – |
| Cn1c(-c2c(F)cc(F)cc2F)c(-c2cc(F)cc(F)c2)cc(Cl)c1=O [Compound 804] | H (key: H shows more than 50% of control values; L shows 50% or less of control values) | – |

| SMILES | Test H (control value class) [2] | other results |
| --- | --- | --- |
| Cn1c(-c2c(F)cc(F)cc2F)c(-c2cc(F)cc(F)c2)cc(Br)c1=O [Compound 805] | H (key: H shows more than 50% of control values; L shows 50% or less of control values) | – |
| CCn1c(-c2c(F)cc(F)cc2F)c(-c2cccc(O)c2Cl)cc(Cl)c1=O [Compound 806] | H (key: H shows more than 50% of control values; L shows 50% or less of control values) | – |
| COc1cc(F)c(-c2c(-c3cc(F)cc(F)c3)cc(Cl)c(=O)n2C)c(F)c1 [Compound 807] | H (key: H shows more than 50% of control values; L shows 50% or less of control values) | – |
| COc1cc(F)c(-c2c(-c3cc(F)cc(F)c3)cc(Br)c(=O)n2C)c(F)c1 [Compound 808] | H (key: H shows more than 50% of control values; L shows 50% or less of control values) | – |
| CCOc1cccc(-c2cc(Cl)c(=O)n(CC)c2-c2c(F)cc(F)cc2F)c1Cl [Compound 809] | H (key: H shows more than 50% of control values; L shows 50% or less of control values) | – |
| CCn1c(-c2c(F)cc(F)cc2F)c(-c2cccc(OCC#N)c2Cl)cc(Cl)c1=O [Compound 810] | H (key: H shows more than 50% of control values; L shows 50% or less of control values) | – |
| CCn1c(-c2c(F)cc(F)cc2F)c(-c2cccc(OCOC)c2Cl)cc(Cl)c1=O [Compound 811] | H (key: H shows more than 50% of control values; L shows 50% or less of control values) | – |
| CCn1c(-c2c(F)cc(F)cc2F)c(-c2cc(F)cc(F)c2Br)ccc1=O [Compound 812] | H (key: H shows more than 50% of control values; L shows 50% or less of control values) | – |
| CCn1c(-c2c(F)cc(F)cc2F)c(-c2cc(F)cc(F)c2Br)cc(Cl)c1=O [Compound 813] | H (key: H shows more than 50% of control values; L shows 50% or less of control values) | – |
| CCn1c(-c2c(F)cc(F)cc2F)c(-c2cc(F)cc(F)c2Br)cc(Br)c1=O [Compound 814] | H (key: H shows more than 50% of control values; L shows 50% or less of control values) | – |
| Cn1c(-c2c(F)cc(F)cc2F)c(-c2cc(F)cc(F)c2Br)ccc1=O [Compound 815] | H (key: H shows more than 50% of control values; L shows 50% or less of control values) | – |
| Cn1c(-c2c(F)cc(F)cc2F)c(-c2cc(F)cc(F)c2Br)cc(Cl)c1=O [Compound 816] | H (key: H shows more than 50% of control values; L shows 50% or less of control values) | – |
| Cn1c(-c2c(F)cc(F)cc2F)c(-c2cc(F)cc(F)c2Br)cc(Br)c1=O [Compound 817] | H (key: H shows more than 50% of control values; L shows 50% or less of control values) | – |
| CCn1c(-c2c(F)cc(OC)cc2F)c(-c2cc(F)cc(F)c2Br)ccc1=O [Compound 818] | H (key: H shows more than 50% of control values; L shows 50% or less of control values) | – |
| CCn1c(-c2c(F)cc(OC)cc2F)c(-c2cc(F)cc(F)c2Br)cc(Cl)c1=O [Compound 819] | H (key: H shows more than 50% of control values; L shows 50% or less of control values) | – |
| CCn1c(-c2c(F)cc(OC)cc2F)c(-c2cc(F)cc(F)c2Br)cc(Br)c1=O [Compound 820] | H (key: H shows more than 50% of control values; L shows 50% or less of control values) | – |
| CCn1c(-c2c(F)cc(F)cc2F)c(-c2ccccc2Cl)cc(I)c1=O [Compound 821] | H (key: H shows more than 50% of control values; L shows 50% or less of control values) | – |
| CCn1c(-c2c(F)cc(OC)cc2F)c(-c2ccccc2Cl)cc(I)c1=O [Compound 822] | H (key: H shows more than 50% of control values; L shows 50% or less of control values) | – |
